# The full ranking holds about 33,000 sequences; the median of “E-score (-0.5 to 0.5)” is about -0.011, and the highest 2% start at about 0.28. The list shows a part of the results.
# Molecular target: T1, Gcr1 (UniProt P07261)
# T1 sequence: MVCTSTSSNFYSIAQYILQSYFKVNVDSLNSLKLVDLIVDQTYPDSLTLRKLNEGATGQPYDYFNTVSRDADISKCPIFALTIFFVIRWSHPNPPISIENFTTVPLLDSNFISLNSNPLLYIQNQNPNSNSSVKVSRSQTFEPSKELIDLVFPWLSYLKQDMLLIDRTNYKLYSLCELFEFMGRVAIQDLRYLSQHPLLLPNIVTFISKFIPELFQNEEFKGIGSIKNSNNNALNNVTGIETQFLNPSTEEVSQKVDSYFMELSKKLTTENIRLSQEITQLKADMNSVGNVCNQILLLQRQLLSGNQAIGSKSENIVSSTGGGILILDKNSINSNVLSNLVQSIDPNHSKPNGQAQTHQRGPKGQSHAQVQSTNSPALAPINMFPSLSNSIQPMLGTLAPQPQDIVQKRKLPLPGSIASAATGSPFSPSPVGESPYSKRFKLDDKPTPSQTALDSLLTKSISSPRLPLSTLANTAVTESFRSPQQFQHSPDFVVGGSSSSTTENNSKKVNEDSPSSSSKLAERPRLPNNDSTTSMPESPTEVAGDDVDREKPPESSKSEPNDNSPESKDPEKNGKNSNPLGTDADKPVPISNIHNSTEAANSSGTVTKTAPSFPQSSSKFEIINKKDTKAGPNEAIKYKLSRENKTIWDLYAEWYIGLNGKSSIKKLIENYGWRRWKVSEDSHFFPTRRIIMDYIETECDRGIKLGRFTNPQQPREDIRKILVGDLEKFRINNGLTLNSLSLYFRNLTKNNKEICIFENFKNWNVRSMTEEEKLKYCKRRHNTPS
# Test: PBM E-score (8-mer binding enrichment) (E-score (-0.5 to 0.5)); higher = stronger / more preferred TF binding; most listed sequences are background and not binding sites
# Conditions: protein concentration: 100 nM; construct: GST-full length
# Method in brief: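 Using PURExpress in vitro transcription/translation, GST-tagged yeast transcription factors were made in full-length or DNA-binding-domain form. These were applied at about 100-200 nM to double-stranded universal all-10-mer Agilent arrays, and bound protein was detected with fluorescent anti-GST. Scans were normalised with masliner before the Universal PBM Analysis Suite assigned E-scores to ungapped eight-base words pooled with their reverse complements.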
row,Sequence,PBM E-score
1,AGCCAGTA,0.0955
2,AAATAAAA,0.154
3,ACATTCAG,0.0532
4,ATGATTAC,-0.267
5,CTTACCAC,-0.111
6,GAGGAATC,0.345
7,AATACAAC,0.0962
8,AATAACCA,-0.0205
9,ATAACATC,0.0721
10,CAATAGCA,-0.0743
11,ACTACGCC,-0.0959
12,CCCCTTAC,-0.164
13,AATTTACA,0.0926
14,AGTATACG,-0.0269
15,GTAATAGA,0.21
16,ATTCTAAC,0.0097
17,CGTCTCAA,0.0914
18,AAAGAAAA,-0.0271
19,GCTTACGA,-0.00571
20,AACCTCTG,-0.0338
21,CCCTCCCA,-0.0295
22,AACAAGTA,0.172

row,Sequence,PBM E-score
1,CCTGGGAC,-0.0336
2,CGGGGTCA,-0.096
3,TGCGCCAA,0.0168
4,GGAAAGAA,0.17
5,ATGGTATA,-0.0384
6,TGGCGCCA,0.37
7,ACTGGGTC,-0.0289
8,GAATAGTC,-0.165
9,TATCCCCA,0.052
10,GCGTAATA,0.0387
11,AGTACGCG,-0.168
12,GACTCGGC,-0.201
13,CTTCCGGA,0.347
14,AAGATCCA,0.107
15,CTTTCTTA,-0.025
16,GTTCAATA,0.102
17,GTAAACAA,-0.0071
18,CGCCATCC,0.0576
19,GTGTCTTA,0.127
20,ACCATAGT,-0.12
21,GCTATACA,-0.167
22,CACTCCAA,-0.0296

row,Sequence,PBM E-score
1,ATAGCTCC,-0.129
2,CAAAAGTC,-0.179
3,ATGGGAAA,-0.0125
4,CCGCTTTC,-0.147
5,AGCCGCAA,0.137
6,GCACCAGA,0.244
7,ACTGAAGC,0.0268
8,CACTCCTG,-0.156
9,TCACGAGA,-0.0874
10,CGACCTCG,-0.169
11,ACAATAAT,-0.0486
12,ATGCAAAG,0.129
13,AACGCGAC,0.0323
14,ATTACCTC,-0.173
15,GCGTTAGA,-0.177
16,AATTAACG,-0.00943
17,CAAACGCG,0.0541
18,ATAGTCAG,-0.227
19,GGGCTTCA,0.071
20,GACAAACA,-0.0622
21,TGATGCAA,-0.0566
22,ATCTGGTC,0.104

row,Sequence,PBM E-score
1,ACGTATAT,0.197
2,CCCGAAAC,0.191
3,AATGCACT,-0.0941
4,CCATTGTA,0.0293
5,TACAAGCA,0.218
6,TGCCGACA,0.0383
7,AAGAATTA,-0.0546
8,GAAAGTCA,-0.0646
9,AAAGCCCA,-0.0697
10,ATGATAGC,-0.0287
11,CAAAATTC,0.306
12,CTGAAGGC,-0.104
13,GTCTAGAA,0.00523
14,TATTTAGA,0.141
15,CATCCCCG,0.229
16,ACCCGGAA,0.163
17,CGGGCGGA,-0.108
18,AAAGATAA,-0.024
19,GGCCTTAC,-0.228
20,ACCCTATA,-0.118
21,ATTCCATC,0.0862
22,AGGAAACT,-0.0906

row,Sequence,PBM E-score
1,CTTATCAC,0.183
2,GGATGCGA,0.155
3,CTACAGGA,0.204
4,CGGGCTCC,0.214
5,AAATGATC,0.0161
6,CAGGACCG,-0.117
7,ACAGGATC,0.197
8,CGTGTGTC,0.0324
9,ATGCTTCG,-0.189
10,ACGTTTAG,-0.0644
11,GCCAATTA,0.12
12,CGAAGGGC,-0.363
13,CCCAATTA,0.143
14,GAAGTGAC,-0.208
15,CCACATGA,-0.0615
16,GAAACGAA,0.117
17,AAAATATG,0.107
18,CGGGACTA,-0.0407
19,CTCACGTC,-0.146
20,ACTACAAT,0.0736
21,GGCGCGCC,0.243
22,CTAGCCGC,0.00282

# From the supplement of paper PMC3334620
